The record followed here is the supplement of paper PMC4723716.

± gives the uncertainty stated by the source. In all, about 9,900 compounds were measured (“viability index relative to DMSO control”: median about 1, lowest 2% from about 0.85 on). Some of the results follow.

In the experiment the test system is Plasmodium falciparum NF54 stage V gametocytes. In words: viability index relative to DMSO control (fraction); higher = less gametocyte killing. The following applies: 2.5 µM, library set: Broad Institute DOS, incubation time: 72 h. Summed up:
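Stage V gametocytes of P. falciparum NF54 were held in serum-free screening medium at 0.75% gametocytemia and 1.25% hematocrit, 10 µl per well of a 1,536-well plate, and exposed to compound at 2.5 µM for 72 hr at 37°C under low oxygen. A 3 µl mix of 2.5 µM MitoTracker Red CMXRos with 0.13% saponin was then added for one to two hours, after which one field per well was imaged and red particles of 20–70 µm2 were counted. The viability index equals this count divided by the plate mean from wells given solvent alone.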
Compound `C[C@@H]1CN([C@H](C)CO)C(=O)CCCn2nncc2CO[C@@H]1CN(C)S(=O)(=O)c1cn(C)cn1` showed a viability index of 1.05 ± 0.068.
Next, `C[C@@H]1CN([C@@H](C)CO)C(=O)CCCn2cc(nn2)CO[C@@H]1CN(C)C(=O)Nc1cccc2ccccc12`: 1.02 ± 0.023; `C(=C\c1ccc([C@@H]2[C@@H]3CN(Cc4ccc5c(c4)OCO5)C[C@H]2N3)cc1)/c1ccccc1`: 0.9695 ± 0.0022; `CC(=O)N1[C@H](CO)[C@H]2c3ccccc3N(S(=O)(=O)c3ccccc3C)C[C@H]21`: 1.054 ± 0.0066.
The figure for `COc1ccccc1-c1ccc2c(c1)O[C@@H](CN(C)CC1CCOCC1)[C@H](C)CN([C@H](C)CO)S2(=O)=O` is 0.945 ± 0.027; for `COc1ccc([C@@H]2C/C=C\C[C@H](C(C)C)NC(=O)CCC(=O)N2)c(OC)c1` it is 1.04 ± 0.025.
Next, `C[C@H](CO)N1C[C@H](C)[C@@H](CN(C)C(=O)c2ccc(N3CCN(C)CC3)cc2)OCc2cnnn2CCCC1=O`: 1.06 ± 0.11.
On to `C[C@@H]1CN([C@@H](C)CO)C(=O)c2cc(NS(=O)(=O)c3ccc(Cl)cc3)ccc2O[C@@H](C)CCCCO[C@@H]1CN(C)Cc1ccncc1`, for which the viability index is 1.024 ± 0.0085.
In the case of `COCC(=O)N1[C@H](CO)[C@@H]2c3ccccc3NC[C@@H]21`, the viability index stood at 1.05 ± 0.024.
Regarding `CCN(C[C@H]1N[C@H](CO)[C@H]1c1ccccc1)C(=O)c1ccncc1`, the viability index came to 1.02 ± 0.053.
The compound `Cc1noc(C)c1NC(=O)Nc1ccc2c(c1)C(=O)N([C@H](C)CO)C[C@@H](C)[C@@H](CN(C)Cc1ccc3c(c1)OCO3)OCCCC[C@H](C)O2` showed a viability index of 1.07 ± 0.079.
The figure for `N#C[C@@H]1[C@@H](c2ccccc2-c2ccccc2F)[C@H](CO)N1C(=O)c1cccc(F)c1` is 1.1 ± 0.13; for `COc1ccc(S(=O)(=O)N(C)C[C@@H]2Oc3ccc(NC(=O)Cc4cn(C)c5ccccc45)cc3C(=O)N([C@@H](C)CO)C[C@H]2C)cc1` it is 0.958 ± 0.1.
As for `COc1ccc2c3c([nH]c2c1)[C@@H](CO)N(C[C@]31CCN(CC1)S(C)(=O)=O)C(=O)C1CCOCC1`, the viability index came out at 1.07 ± 0.023.
Next, `COc1ccccc1C(=O)N1C[C@@H]2[C@H](c3ccccc31)[C@@H](CO)N2C(=O)Cc1ccccc1`: 0.949 ± 0.13; `O=C(C[C@H]1CC[C@H]2[C@@H](COC[C@H](O)CN2CCC(F)(F)F)O1)NCc1ccc2c(c1)OCO2`: 0.983 ± 0.063.
Regarding `CN1CCN(C(=O)C[C@H]2CC[C@H]3[C@@H](COC[C@H](O)CN3CC3CCCCC3)O2)CC1`, the viability index is 0.984 ± 0.013.
In turn, `CCS(=O)(=O)Nc1ccc2c(c1)C(=O)N(C)C[C@@H](OC)[C@@H](C)CN(CC1CCCCC1)[C@@H](C)CO2` showed a viability index of 0.989 ± 0.074.
Next, `O=C1[C@@H](Cc2ccc(F)cc2)CCn2cc(nn2)COC[C@H]2CCCN12`: 1.05 ± 0.071.
Turning to `N#C[C@@H]1[C@H](c2ccc(C3=CCCCC3)cc2)[C@@H](CO)N1S(=O)(=O)c1ccccc1`, the viability index was determined as 1.17 ± 0.12.
Consider `Cc1cc(C(=O)Nc2ccc3c(c2)C(=O)N(C)[C@H]2CC[C@@H](CC(=O)NCc4ccc(-c5ccccc5)cc4)O[C@H]2CO3)no1`, for which the viability index stood at 0.982 ± 0.012.
The figure for `O=C(NC[C@@H]1[C@@H](c2ccccc2)[C@H](CO)N1C(=O)Cc1ccncc1)C1CCC1` is 1.02 ± 0.046; for `C[C@@H](NC(=O)[C@H]1[C@H](CO)[C@H]2Cn3c(ccc(-c4ccccc4)c3=O)[C@H]2N1C)c1ccccc1` it is 0.935 ± 0.054.
`CCCN(C)C[C@H]1OCCCC[C@@H](C)Oc2ccc(NC(=O)CCCN(C)C)cc2C(=O)N([C@@H](C)CO)C[C@H]1C` returned a viability index of 1.1 ± 0.031.
The compound `COc1ccc(CNC(=O)C[C@@H]2CC[C@H](NC(=O)CN(C)C)[C@@H](CO)O2)cc1` gave a viability index of 1.08 ± 0.041.
Next, `C[C@@H]1CN([C@@H](C)CO)C(=O)CCCn2cc(nn2)CO[C@@H]1CN(C)C(=O)Nc1cccc(C(F)(F)F)c1`: 0.984 ± 0.013; `C[C@H]1C/C=C/C[C@@H](c2cccc(Cl)c2)NC(=O)[C@H](Cc2ccccc2)N(C)C(=O)c2ccccc2O1.C[C@H]1C/C=C\C[C@@H](c2cccc(Cl)c2)NC(=O)[C@H](Cc2ccccc2)N(C)C(=O)c2ccccc2O1`: 0.9285 ± 0.0058.
Next, `COc1cccc(NC(=O)N2CC3(C2)[C@H](c2ccccc2)[C@H](CO)N3C(C)=O)c1`: 1.0455 ± 0.00073; `CCS(=O)(=O)N1C[C@@]2(C1)CN(Cc1ccc3OCOc3c1)[C@@H](CO)c1c2c2ccc(OC)cc2n1C`: 1.05 ± 0.035; `CCCNC(=O)N1CC[C@@]2(CC1)CN(Cc1cccc(OC)c1)[C@@H](CO)c1[nH]c3cc(OC)ccc3c21`: 1.03 ± 0.026.
Next, `C[C@H]1CN([C@@H](C)CO)C(=O)c2cccc(NC(=O)Nc3ccc(F)cc3)c2O[C@H]1CN(C)S(=O)(=O)c1ccc(Cl)cc1`: 0.959 ± 0.098; `COc1ccccc1C#Cc1ccc([C@H]2[C@@H](CO)N3CCCCN(C(=O)C4CCC4)C[C@@H]23)cc1`: 0.989 ± 0.21.
Turning to `COCC(=O)N1[C@@H]2c3ccc(C4=CCCCC4)c(=O)n3C[C@@H]2[C@@H](CO)[C@@H]1C(=O)N1CCN(C)CC1`, the viability index was 1.09 ± 0.012.
In turn, `CC[C@H]1C/C=C\C[C@H](C(C)C)NC(=O)CCC(=O)N1` yielded a viability index of 1.027 ± 0.01.
Next, `CCCNC(=O)[C@H]1[C@H](CO)[C@H]2Cn3c(cccc3=O)[C@@H]1N2CCC(F)(F)F`: 1.04 ± 0.017; `COc1cc(CN2C[C@@H]3N[C@H](C2)[C@@H]3c2ccc(-c3ccc(C#N)cc3)cc2)cc(OC)c1`: 0.913 ± 0.071.
For `C[C@H](CO)N1C[C@H](C)[C@@H](CN(C)Cc2ccc(C(=O)O)cc2)Oc2ccc(NC(=O)CCN3CCOCC3)cc2CC1=O`, the viability index came out at 0.971 ± 0.035.
Next, `CCN(C[C@H]1[C@H](c2ccccc2)[C@H](CO)N1CC1CC1)C(=O)c1ccccn1`: 0.975 ± 0.054.
For `C[C@H]1CN([C@@H](C)CO)C(=O)CCCn2nncc2CO[C@H]1CN(C)Cc1ccc2cccnc2c1`, the viability index is 1.07 ± 0.011.
Compound `CC(=O)N1[C@H](CO)[C@H](c2ccc(C3=CCCCC3)cc2)[C@@H]1CNC(=O)CN(C)C` displayed a viability index of 1.016 ± 0.0023.
The compound `N#C[C@H]1[C@H](c2ccccc2-c2ccccc2F)[C@@H](CO)N1C(=O)C1CCC1` displayed a viability index of 1.17 ± 0.17.
Next, `C[C@H](NC(=O)C[C@H]1CC[C@@H]2[C@H](COC[C@@H](O)CN2Cc2ccc(C(F)(F)F)cc2)O1)c1ccccc1`: 0.9829 ± 0.0018.
The figure for `C[C@@H]1CN([C@H](C)CO)C(=O)CCCn2nncc2CO[C@@H]1CN(C)S(=O)(=O)c1ccccc1C#N` is 1.13 ± 0.094; for `O=C(CCN1CCCCC1)N[C@H]1CC[C@H](CC(=O)N2CCC(Cc3ccccc3)CC2)O[C@H]1CO` it is 0.999 ± 0.041; for `C/C=C/c1ccc2n(c1=O)C[C@H]1[C@H](CO)[C@@H](C(=O)N[C@@H](C)c3ccccc3)[C@@H]2N1Cc1cncnc1.C/C=C\c1ccc2n(c1=O)C[C@H]1[C@H](CO)[C@@H](C(=O)N[C@@H](C)c3ccccc3)[C@@H]2N1Cc1cncnc1` it is 1.09 ± 0.091.
